Results taken from the RNAGym collection of RNA variant scans (doi:10.1093/nar/gkz1192).
The source gives no read counts; variants with many changes may rest on few reads.

B1: CPEB3 Ribozyme (parent)
chain: UAACAGGGGGCCACAGCAGAAGCGUUCACGUCGCAGCCCCUGUCAGAUUCUGGUGAAUCUGCGAAUUCUGCUGUAUAUCUC

Variants of: B1
Assay: self-cleavage, relative activity (ratio to wild type); higher = more cleavage; in vitro, sequencing
Summary of the method: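 For each CPEB3 ribozyme variant, relative activity is its cleaved/total read fraction divided by the unmutated ribozyme's. Barcoded error-prone PCR libraries were transcribed by T7 RNA polymerase (5 hours, 37°C) and held in DNase I for 15 min before an EDTA stop, with cleavage occurring throughout. Template-switching reverse transcription and Illumina sequencing were used to read the RNAs. A 5-read minimum applied, and results are the mean of three batches.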

Variant | self-cleavage
UAACGGGGGGCCACAGCAGAAGCGUUCACCUCGCAGCCCCAGUCAGAUUCUGGUGAAUCUGCGAAUUCUGCUGUAUAUCUC [A5G G30C U41A] | 0.35
UAACGGGGUGCCACAGCAGAAGCGCUCACGUCGCAUCCCCUGUCAGAUUCUGGUGGAUCUGCGAAUUCUGCUGUAUAUCUC [A5G G9U U25C G36U A56G] | 0.08
UAACGGGGAGCCACAGCAGAAGCGUUCACGUCGCAGCCCCUGUCAGGUUCUGGUGAAUCCGCGAAUUCUGCUGUAUAUCUC [A5G G9A A47G U60C] | 0.2
UAACGGGGGACCACAGCAGAAGCGUUCACGUCGCAGCCCCUGCCAGAUUCUGGUGAAUCUGCGAAUACCGCUGUAUAUCUC [A5G G10A U43C U67A U69C] | 0.08
UAACGGGGAGCCACAGCAGAAGCGUUCACGUCGCAGCCCCUGUCAGAUUCUGGUGAAUCUGCGGUUUCUGCUGAAUAUCUC [A5G G9A A64G A65U U74A] | 0.16
UAACGGGGGGCCACAGCAGAAGCAUUCACGUCGCAGCCCCUGUCAGAUUCUGGUGGAUCUGCGAAUACUGCUGUAUAUCUC [A5G G24A A56G U67A] | 0.43
UAACGUGGGGCCUCAGCAGAAGCGCUCACGUCGCAGCCCCCGUCAGAUUCUGGUGAAUCUGCGAAUUCUGCUGUAUAUCUC [A5G G6U A13U U25C U41C] | 0.18
UAACGGGAGGCCACAGCAGAAGCGUUCACGUCGCAGCCCCUGUCGGAUUCUGGUGAUUCUGCGAGUUCUGCUGUAUAUCUC [A5G G8A A45G A57U A65G] | 0.22
UAACGGAGGGCCACAGCAGAAGCGUUCACGUCGCAGCCCCUGUCAGAUACUGGUGAGUCUGCGAAUUCAGCCGUAUAUCUC [A5G G7A U49A A57G U69A U72C] | 0.14
UAACGGGGGACCACAGCAGAAGCGUCCACGUCGCAGCCCCUGUCAGAUUCUGGUGAAUCUGCGAACUCUGCUGUAUAUCCC [A5G G10A U26C U66C U80C] | 0.26
UAACGGGGGGCCACAGCAGAAGCGCUCUCGUCGCAGCCCUUGUCAGGUUCUGGUGAAUCUGCGAAUUCUGCUGUAUAUCUC [A5G U25C A28U C40U A47G] | 0.09
UAACGGAGGGCCACAGCAGAAGCGUUCACGACGCAGCCCCUGUCAGAUUCUGGUGAAUCUGCGAAUUCUGCUGUAUAUCUC [A5G G7A U31A] | 0.08
UAACGGGGGGCCACAGCAGAAGCGUUCACGUCGCAGCCCCUGUCAGAUUCUGGUAAAUCUGCGAAUUCUGCUGUAUUUCUC [A5G G55A A77U] | 0.49
UAACGGGGGGCCACAGCAGAAGCGAUCAUGUCGCAGCCCCUGUCAGAUUCUGGUGAAUCCGCGGAUUCUGCAGUAUAUCAC [A5G U25A C29U U60C A64G U72A U80A] | 0.05
UAACGGGGGGCCACAUCAGAAGCGUUCACGUCGCAGCCCCUGUCAGAUUCUGGCGAAUCUGCGAAUUCUGCUCUUUAUCUC [A5G G16U U54C G73C A75U] | 0.23
UAACGGGGGGCCACAGCAGAAGCGUUCACGUCGCAGCCCCUGUCAGAUUCUGCUGAUUCUGCGAAUUCUGCUGUAUAUCUC [A5G G53C A57U] | 0.41
UAACGGGGGGCCACAGCAGAAGCGUUCACGUCGCAGCCCCUAUCAGGUUCUGGUGAAUCUGCGAACUCUGCUGUAUAUCUC [A5G G42A A47G U66C] | 0.15

Variant | self-cleavage
UAACGGGGGGCCACAGCAGAAACGUUCACGCCGCAGCCCCUGUCAGAUUCUGGUGGAUCCGCGAAUUCUGCUGUAUAUCUC [A5G G22A U31C A56G U60C] | 0.17
UAACGGGGGACCACAGCAGGAGCGAUCACGUCGCAGCCCCUGUCAGAUCCUGGUGAAUCUGCGAAUCCUGCUGUAUAUCUC [A5G G10A A20G U25A U49C U67C] | 0.04
UAACGGGGAGCCACGGCAGAAGCGCUCACGUCGCAGCCCUUGUCAGAAUCUGGUGAAUCUGCGAAUUCUGCUGUAUAUCUC [A5G G9A A15G U25C C40U U48A] | 0.09
UAACGGGAGGCCACUGCAGAAGCGUUCACGUCGCAGCCCCUGUCAGAUUCUGGUGAAUCUGCGAAUUCAGCUGUAUAUCUC [A5G G8A A15U U69A] | 0.07
UAACGGGAGGCCACAGCAGAAGCGUCCACGUCGCAGCCCCUGUCAGAUUCUGGUGAAUCUGCGAAUUCUGCUGUAUAUCUC [A5G G8A U26C] | 0.41
UAACGCGGGGCCACAGCAGAAGCGUUCACGUCGCAGCCCCUGUCAGAUUCUGGUGAAUCUGCGAAUUCCGCUGUAUAUCUC [A5G G6C U69C] | 0.12
UAACGGGGGGCCACAGCAGAAGCAUUCACGUCGCAGCCCCUGACAGAUUCUGGUGAAUCUGCGAAUUCUGCUGUAUAUCAC [A5G G24A U43A U80A] | 0.08
UAACGGGUGGCCACAGCGGAAGCAUUCACGUCGCAGCCCCUGUCAGAUUCUGGUGAAUCUGCGAAUUCUGAUGUAUAUCUC [A5G G8U A18G G24A C71A] | 0.03
UAACGGGGGGCCACAGCAGAAGCGUUCACGUCGCACCCCCCGUCAGAUUCUGGUGAAUCUGCGAAUUCUGCUGUAUAUCAC [A5G G36C U41C U80A] | 0.63
UAACGGUGCGCCACACCAGAAGCGUUCACGUCGCAGCCCCUGACAGAUUCUGGUGAAUCUGCGAACUCUGCUGCAUAUCUC [A5G G7U G9C G16C U43A U66C U74C] | 0.2
UAACGGGGGACCACAGCAGAAGCGUUCAGGUCGCAGCCCCUGUCAGGUUCUGGUGAAUCUGCGAAUUCUGCUGUUUAUCUC [A5G G10A C29G A47G A75U] | 0.14
UAACGGGAGGCCACAGCGGAAGCGUUCACGUCACAUCCCCUGUCAGAUUCUGGUGAAUCUUCGAAUUCCGCUGUAUAUCUC [A5G G8A A18G G33A G36U G61U U69C] | 0.06
UAACGGGGGGCCACAGCAGAAACGUUCACGUCGCAGCCCCUGUCAGAUUCCGGUGAAUCUGCGAAUUCUGCUGUAUAUCUC [A5G G22A U51C] | 0.35
UAACGGGGUGCCACAGCAGAAGCGUUCACGUCGCAGCCCCUGUCAGACUCUGGUGAAUCUGCGAAUUCUGCCGUAUAUCUC [A5G G9U U48C U72C] | 0.16
UAACGGGGGGCCACAGCAGAAGCGCUCCCGUCGCAGCCCCUGUCAGAUUCUGGUGAAUCUGCUUAUUCCGCUGUAUAUCUC [A5G U25C A28C G63U A64U U69C] | 0.11
UAACGGGGGACCGCAGCAGAAGCGUUCACACCGCUGCCCCUGUCGGAUUCUGGUGAAUCUGCGAAUUCUGCUGUAUAUCUC [A5G G10A A13G G30A U31C A35U A45G] | 0.1
UAACGGGGGCCCACAGCAGAAGCGUUCACGUCGCAGCCCCUGUCAGAUUCUGGUGAAUCUGCGAAUUCUGGUGUAUAUCUC [A5G G10C C71G] | 0.14
